Laboratory results published in the supplement of paper PMC4967469.

How the values were obtained:
Assay in all cases: Viability of human cancer cell lines after 72 h of drug (GDSC screen)
17-AAG = compound: C=CCNC1=C2C[C@@H](C)C[C@H](OC)[C@H](O)[C@@H](C)/C=C(\C)[C@H](OC(N)=O)[C@@H](OC)/C=C\C=C(/C)C(=O)NC(=CC1=O)C2=O [17-AAG]; conditions: top dose 1 µM
Procedure: (§1)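 Human cancer cell lines in 384-well plates, medium with 10% serum, drug for 72 h over a 256-fold dose range (nine 2-fold or five 4-fold steps up to the top dose). Adherent lines were fixed and stained with the nucleic acid dye Syto60, suspension lines read with resazurin; signal relative to control wells, capped at 0 and 100%. One two-parameter sigmoid per drug and line, fitted in a mixed model over all curves with the slope shared within a line.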

CCT018159 = compound: CCc1cc(-c2n[nH]c(C)c2-c2ccc3c(c2)OCCO3)c(O)cc1O [CCT018159]; conditions: top dose 10 µM; top dose inferred
Procedure: as §1

Vismodegib = compound: CS(=O)(=O)c1ccc(C(=O)Nc2ccc(Cl)c(-c3ccccn3)c2)c(Cl)c1 [Vismodegib]; conditions: top dose 10 µM; top dose inferred
Procedure: as §1

UNC1215 = compound: O=C(c1ccc(C(=O)N2CCC(N3CCCC3)CC2)c(Nc2ccccc2)c1)N1CCC(N2CCCC2)CC1 [UNC1215]; conditions: top dose 1 µM; top dose inferred
Procedure: as §1

BIX02189 = compound: CN(C)Cc1cccc(N=C(c2ccccc2)c2c(O)[nH]c3cc(C(=O)N(C)C)ccc23)c1 [BIX02189]; conditions: top dose 20 µM; top dose inferred
Procedure: as §1

OSI-027 = compound: COc1cccc2cc(-c3nc([C@H]4CC[C@H](C(=O)O)CC4)n4ncnc(N)c34)[nH]c12 [OSI-027]; conditions: top dose 20 µM
Procedure: as §1

VX-11e = compound: Cc1cnc(Nc2ccc(F)cc2Cl)nc1-c1c[nH]c(C(=O)N[C@H](CO)c2cccc(Cl)c2)c1 [VX-11e]; conditions: top dose 5.12 µM; top dose inferred
Procedure: as §1

TG101348 = compound: Cc1cnc(Nc2ccc(OCCN3CCCC3)cc2)nc1Nc1cccc(S(=O)(=O)NC(C)(C)C)c1 [TG101348]; conditions: top dose 10.24 µM
Procedure: as §1

Dimethyloxalylglycine = compound: COC(=O)CNC(=O)C(=O)OC [Dimethyloxalylglycine]; conditions: top dose 4000 µM; top dose inferred
Procedure: as §1

Row | Cell Line | AUC (17-AAG) | IC50 (17-AAG) [µM] | AUC (CCT018159) | IC50 (CCT018159) [µM] | AUC (Vismodegib) | IC50 (Vismodegib) [µM] | AUC (UNC1215) | IC50 (UNC1215) [µM] | AUC (BIX02189) | IC50 (BIX02189) [µM] | AUC (OSI-027) | IC50 (OSI-027) [µM] | AUC (VX-11e) | IC50 (VX-11e) [µM] | AUC (TG101348) | IC50 (TG101348) [µM] | AUC (Dimethyloxalylglycine) | IC50 (Dimethyloxalylglycine) [µM]
1 | NCI-H146 (small cell lung carcinoma, suspension) | 0.992 | > 1 | 0.975 | > 10 | 0.988 | > 10 | 0.993 | > 1 |  |  |  |  |  |  |  |  |  | 
2 | NCI-H835 (lung carcinoid, suspension) | 0.949 | > 1 | 0.985 | > 10 | 0.986 | > 10 | 0.983 | > 1 |  |  |  |  |  |  |  |  |  | 
3 | NCI-H1341 (small cell lung carcinoma, suspension) | 0.538 | 0.0781 | 0.827 | 4.93 | 0.983 | > 10 | 0.989 | > 1 |  |  |  |  |  |  |  |  |  | 
4 | OACM5-1 (oesophagus, semi-adherent) | 0.873 | > 1 | 0.986 | > 10 | 0.984 | > 10 | 0.976 | > 1 | 0.779 | 9.23 | 0.203 | 0.145 | 0.895 | > 5.12 | 0.665 | 1.96 |  | 
5 | RCH-ACV (B-cell leukaemia, suspension) | 0.956 | > 1 | 0.954 | > 10 | 0.984 | > 10 | 0.977 | > 1 |  |  |  |  |  |  |  |  |  | 
6 | RH-18 (rhabdomyosarcoma, adherent) | 0.821 | 0.69 | 0.896 | > 10 | 0.98 | > 10 | 0.983 | > 1 |  |  |  |  |  |  |  |  |  | 
7 | SK-MEL-31 (melanoma, adherent) | 0.923 | > 1 | 0.985 | > 10 | 0.985 | > 10 | 0.977 | > 1 |  |  |  |  |  |  |  |  |  | 
8 | SK-N-FI (neuroblastoma, adherent) | 0.939 | > 1 |  |  | 0.959 | > 10 | 0.988 | > 1 | 0.986 | > 20 | 0.798 | 9.41 | 0.958 | > 5.12 | 0.933 | > 10.2 | 0.849 | 2970
9 | SNU-61 (large intestine, adherent) | 0.875 | > 1 | 0.982 | > 10 | 0.985 | > 10 | 0.973 | > 1 | 0.959 | > 20 | 0.862 | > 20 | 0.706 | 1.49 | 0.816 | 8.12 |  | 
10 | SUP-B8 (B-cell leukaemia, suspension) | 0.959 | > 1 | 0.922 | > 10 | 0.98 | > 10 | 0.987 | > 1 |  |  |  |  |  |  |  |  |  | 
11 | TC-YIK (cervix, suspension) | 0.891 | 0.894 | 0.934 | > 10 | 0.978 | > 10 | 0.985 | > 1 |  |  |  |  |  |  |  |  |  | 

Lines with a small IC50 respond at low doses; a fit beyond the top or the lowest dose is shown as a bound at that dose. AUC, from the same fit, is the share of area under the viability curve across the 256-fold dose range: 1 means no effect, lower means more sensitive. For some of these results: The top dose, if marked as inferred, was derived from the fitted curves, not read from the paper.
